The full ranking holds about 81,000 sequences; the median of “one-hybrid fitness for binding NBS DNA” is about -0.1, and the highest 2% start at about 0.36. The list shows a part of the results.
B1: Caulobacter ParB omega fusion; a variant is named by its letters at X, in order, B8GW30 (parent)
chain: MESVVVGEPGMSEGRRGLGRGLSALLGEVDAAPAQAPGEQLGGSREAPIEILQRNPDQPRRTFREEDLEDLSNSIREKGVLQPILVRPSPDTAGEYQIVAGERAWRAAQRAGLKTVPIMVRELDDLAVLEIGIIENVQRADLNVLEEALSYKVLMEKFERTQENIAQTIGKSXSHVANXMRLLXLPDEVQSYLVSGELTAXHARAIAAAADPVALAKQIIEGGLSVRETEALARKAPNLSAGKSKGGRPPRVKDTDTQALESDLSSVLGLDVSIDHRGSTGTLTITYATLEQLDDLCNRLTRGI

Variants of: B1
Assay: one-hybrid fitness for binding NBS DNA (the Noc-binding site; scaled: cognate 1, non-cognate 0); higher = stronger binding
Conditions: with NBS DNA site
Procedure, shortened: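 The reporter was HIS3, with the binding site 19 bp from the promoter, in E. coli USO used for bacterial one-hybrid selection of Caulobacter ParB libraries with four specificity codons randomised. Growth was on M9 lacking histidine, with 0.1 mM IPTG and 5 mM 3-AT, for 48 hours at 37°C. Illumina sequencing covered plasmids before and after selection; three replicate libraries were pooled and variants with under 10 reads dropped. A fitness score is the log change in variant-to-wild-type read ratio, rescaled to the cognate and non-cognate references.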

one-hybrid fitness for binding NBS DNA, 0.265:
QKGA

one-hybrid fitness for binding NBS DNA, 0.224:
LKKR

one-hybrid fitness for binding NBS DNA, 0.229:
QAKL

one-hybrid fitness for binding NBS DNA, 0.354:
RTIR

one-hybrid fitness for binding NBS DNA, 0.308:
QSNA

one-hybrid fitness for binding NBS DNA, 0.232:
RCSA

one-hybrid fitness for binding NBS DNA, 0.226:
QIRN

one-hybrid fitness for binding NBS DNA, 0.368:
VRNR

one-hybrid fitness for binding NBS DNA, 0.3:
QRNL

one-hybrid fitness for binding NBS DNA, 0.252:
QARW

one-hybrid fitness for binding NBS DNA, ≤ 0.2:
FRDS
RQIA
KVTC
PANA
FPDF
QVVN
FNER
RGWT
SQTS
TPPG
HMQF
EGST
RCAM
QIPF
LKPL
MLIG
QQAV
NKNC
CCTT
LFLW
SNCM
SNAV
REVI
PKGG
LMTW
KHKI
HYNR
EDPL
TTAT
MSDS
PQRW
TEMR
VYHT
WPGS
PSKW
FPPS
PSCW
GWRW
GHDF
PWLS
GVND
EVFS
REKA
SLSQ
PPVK
TPNV
QVQW
KRRE
ICQR
RHSE
PLWE
NANN
LQCS
NVIV
WAYR
HDGS
STYL
PWPS
NMKQ
RSTG
VIPR
QDRC
QKHF
EANI
AYNS
FTCL
CNSI
TPRK
TTQA
CMEG
AQSQ
TEPP
PQIL
KCKE
TDTD
PRRM
CRWR
FQGG
QSPE
STQF
PMIW
QHEV
QREI
HKHT
TIQY
QEYT
FCHY
FIGS
KTKV
PTST
YQLI
GYQR
SMVD
ETPT
FGGR
GEPV
DEDW
CWNS
WLPY
FHDT
KKCR
QGKE
SLHY
GCKR
GLTE
QMAM
VARC
GSAR
ITKH
ILYI
LDHM
HDMF
TIFF
CQRL
AQLS
APKK
VTKG
PSDL
QVYL
CTTV
DLTG
PYFL
PIWR
EVRR
HSLV
LKLE
APYL
SWYC
MSPF
QFDW
YIGG
FHLK
AQVR
VIIA
WMQS
YMES
SDCG
AHDV
GSHC
AATI
IAIL
TCVD
VYLT
SVML
LMQK
QAPE
LVST
MKNG
VLHM
CCST
QLML
FQPT
SHPE
DCDG
MGKV
ATMC
QESD
YIPI
PQYM
HCPG
IFMT
QFRA
TMFD
LCWS
KHDR
QMCV
EYTR
KAHT
QSAP
TPYF
VVVC
SSKW
EGHF
HMRY
QSAD
HTPP
WLER
RLCP
PGDG
DLPM
RDTI
KCVS
SHNR
RYQI
PPLN
CSLR
RKHE
VYNT
CPFV
MVEV
GLSY
LAQE
NCRM
TCYM
EHPE
GLNE
FLPG
NAFC
AATR
CSFI
GQEG
RDGV
QCQM
QLVH
FQLC
LEPS
TPTT
WMVS
TYNK
DAPQ
EWNR
IILG
YSYG
ARRY
EHVT
PYVV
LCIT
TIPE
SNVN
IGLC
YNLR
MQDT
LESR
KVLV
RKEG
RRTE
TVSS
TCSW
ENKR
CHKG
LARE
GRPG
HQDT
KKLT
RDDW
HRRD
HWTS
MLAS
NYLC
GESC
ARFS
NYIC
CHLA
DCLF
MFRW
PEDG
SSFG
IRAL
QSGP
LYPF
FGVL
GHRH
QNCE
SPGE
PNRF
PVNR
MITS
GEQS
QLGW
PAQF
DFND
KPTG
ILAT
SLIA
HDCS
DADV
KQST
IHRG
DEWG
YSVY
QLPQ
MFWL
KVPS
CMRD
DLAT
PNMW
KFMC
CMNV
TPEA
AKWS
WSAQ
WAIS
QAMC
YSDS
LHTK
YGKL
ICLR
RPDP
TATK
LPMT
SCGT
VLFG

one-hybrid fitness for binding NBS DNA, 0.271:
QTYH

one-hybrid fitness for binding NBS DNA, 0.367:
RYKC
QRGG

one-hybrid fitness for binding NBS DNA, 0.314:
QVCT
